The other results are listed elsewhere or left out. Many values rest on one well or one pass, so single values are uncertain.
These compounds were tested on LB2518-MEL (assay: cell count relative to DMSO control; melanoma cells; higher = more viable cells). Conditions: library dose: low library concentration; 72 h.
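Further: cell number obtained by counting DAPI-stained nuclei in high-throughput microscope images with image analysis software, screen run in 1,536-well plates.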

SMILES | cell count
CN1CCN(c2ccc3nc(-c4c(N)c5c(F)cccc5[nH]c4=O)[nH]c3c2)CC1 [Dovitinib] + Nc1ncn([C@H]2C[C@H](O)[C@@H](CO)O2)c(=O)n1 [decitabine] (first compound 0.1 µM, partner dose 0.1 µM) | 93.2%
C[C@@H](Oc1cc(-c2cnn(C3CCNCC3)c2)cnc1N)c1c(Cl)ccc(F)c1Cl [Crizotinib] + Cc1nc(Nc2ncc(C(=O)Nc3c(C)cccc3Cl)s2)cc(N2CCN(CCO)CC2)n1 [dasatanib] (first compound 0.2 µM, partner dose 0.004 µM) | 87.7%
CS(=O)(=O)CCNCc1ccc(-c2ccc3ncnc(Nc4ccc(OCc5cccc(F)c5)c(Cl)c4)c3c2)o1 [lapatinib] + CC(=O)c1c(C)c2cnc(Nc3ccc(N4CCNCC4)cn3)nc2n(C2CCCC2)c1=O [palbociclib] (first compound 0.8 µM, partner dose 0.04 µM) | 80.8%
CS(=O)(=O)CCNCc1ccc(-c2ccc3ncnc(Nc4ccc(OCc5cccc(F)c5)c(Cl)c4)c3c2)o1 [lapatinib] + COCC[n+]1c2c(n(Cc3cnccn3)c1C)C(=O)c1ccccc1C2=O [YM155] (first compound 0.8 µM, partner dose 0.0004 µM) | 81.1%
CN1CCN(c2ccc3nc(-c4c(N)c5c(F)cccc5[nH]c4=O)[nH]c3c2)CC1 [Dovitinib] + COCC[n+]1c2c(n(Cc3cnccn3)c1C)C(=O)c1ccccc1C2=O [YM155] (first compound 0.1 µM, partner dose 0.0004 µM) | 78.3%
C[C@@H](Oc1cc(-c2cnn(C3CCNCC3)c2)cnc1N)c1c(Cl)ccc(F)c1Cl [Crizotinib] + CCCS(=O)(=O)Nc1ccc(F)c(C(=O)c2c[nH]c3ncc(Cl)cc23)c1F [PLX4720] (first compound 0.2 µM, partner dose 0.08 µM) | 107%
C=CCNC1=C2C[C@@H](C)C[C@H](OC)[C@H](O)[C@@H](C)/C=C(\C)[C@H](OC(N)=O)[C@@H](OC)/C=C\C=C(/C)C(=O)NC(=CC1=O)C2=O [Tanespimycin] + Cc1nc(Nc2ncc(C(=O)Nc3c(C)cccc3Cl)s2)cc(N2CCN(CCO)CC2)n1 [dasatanib] (first compound 0.002 µM, partner dose 0.004 µM) | 106%
CS(=O)(=O)CCNCc1ccc(-c2ccc3ncnc(Nc4ccc(OCc5cccc(F)c5)c(Cl)c4)c3c2)o1 [lapatinib] + Nc1nc(F)nc2c1ncn2[C@@H]1O[C@H](CO)[C@@H](O)[C@@H]1O [fludarabine] (first compound 0.8 µM, partner dose 0.2 µM) | 103%
C[C@@H](Oc1cc(-c2cnn(C3CCNCC3)c2)cnc1N)c1c(Cl)ccc(F)c1Cl [Crizotinib] + Nc1cccc2c1CN(C1CCC(=O)NC1=O)C2=O [lenalidomide] (first compound 0.2 µM, partner dose 1 µM) | 105%
C[C@@H](Oc1cc(-c2cnn(C3CCNCC3)c2)cnc1N)c1c(Cl)ccc(F)c1Cl [Crizotinib] + COc1ccc(Cl)c(Nc2nc3ccccc3nc2NS(=O)(=O)c2cccc(NC(=O)C(C)(C)N)c2)c1 [XL147] (first compound 0.2 µM, partner dose 0.8 µM) | 99.5%
CS(=O)(=O)CCNCc1ccc(-c2ccc3ncnc(Nc4ccc(OCc5cccc(F)c5)c(Cl)c4)c3c2)o1 [lapatinib] + CCCS(=O)(=O)Nc1ccc(F)c(C(=O)c2c[nH]c3ncc(Cl)cc23)c1F [PLX4720] (first compound 0.8 µM, partner dose 0.08 µM) | 129%

The compounds below were run on LOXIMVI in the same assay as above. Conditions: library dose: low library concentration; 72 h.

SMILES | cell count
C[C@@H](Oc1cc(-c2cnn(C3CCNCC3)c2)cnc1N)c1c(Cl)ccc(F)c1Cl [Crizotinib] + CO[C@H]1C[C@@H]2CC[C@@H](C)[C@@](O)(O2)C(=O)C(=O)N2CCCC[C@H]2C(=O)O[C@H]([C@H](C)C[C@@H]2CC[C@@H](OCCO)[C@H](OC)C2)CC(=O)[C@H](C)/C=C(\C)[C@@H](O)[C@@H](OC)C(=O)[C@H](C)C[C@H](C)/C=C/C=C/C=C/1C [everolimus] (first compound 0.2 µM, partner dose 0.02 µM) | 84.6%
CN1CCN(c2ccc3nc(-c4c(N)c5c(F)cccc5[nH]c4=O)[nH]c3c2)CC1 [Dovitinib] + CC(=O)c1c(C)c2cnc(Nc3ccc(N4CCNCC4)cn3)nc2n(C2CCCC2)c1=O [palbociclib] (first compound 0.1 µM, partner dose 0.04 µM) | 66.5%
CS(=O)(=O)CCNCc1ccc(-c2ccc3ncnc(Nc4ccc(OCc5cccc(F)c5)c(Cl)c4)c3c2)o1 [lapatinib] + C#Cc1cccc(Nc2ncnc3cc(OCCOC)c(OCCOC)cc23)c1 [erlotinib] (first compound 0.8 µM, partner dose 0.8 µM) | 102%
C[C@@H](Oc1cc(-c2cnn(C3CCNCC3)c2)cnc1N)c1c(Cl)ccc(F)c1Cl [Crizotinib] + CN1CCN(c2ccc3nc(-c4c(N)c5c(F)cccc5[nH]c4=O)[nH]c3c2)CC1 [Dovitinib] (first compound 0.2 µM, partner dose 0.1 µM) | 120%
CS(=O)(=O)CCNCc1ccc(-c2ccc3ncnc(Nc4ccc(OCc5cccc(F)c5)c(Cl)c4)c3c2)o1 [lapatinib] + OCc1c[nH]c2ccccc12 [Indole-3-carbinol] (first compound 0.8 µM, partner dose 0.8 µM) | 78.9%
CNC(=O)c1cc(Oc2ccc(NC(=O)Nc3ccc(Cl)c(C(F)(F)F)c3)cc2)ccn1 [sorafenib] + C#Cc1cccc(Nc2ncnc3cc(OCCOC)c(OCCOC)cc23)c1 [erlotinib] (first compound 0.4 µM, partner dose 0.8 µM) | 106%
C=CCNC1=C2C[C@@H](C)C[C@H](OC)[C@H](O)[C@@H](C)/C=C(\C)[C@H](OC(N)=O)[C@@H](OC)/C=C\C=C(/C)C(=O)NC(=CC1=O)C2=O [Tanespimycin] + Cn1c(Nc2ccc(C(F)(F)F)cc2)nc2cc(Oc3ccnc(-c4ncc(C(F)(F)F)[nH]4)c3)ccc21 [CHIR265] (first compound 0.002 µM, partner dose 0.08 µM) | 62.7%
CN1CCN(c2ccc3nc(-c4c(N)c5c(F)cccc5[nH]c4=O)[nH]c3c2)CC1 [Dovitinib] + OCc1c[nH]c2ccccc12 [Indole-3-carbinol] (first compound 0.1 µM, partner dose 0.8 µM) | 83.2%
CNC(=O)c1cc(Oc2ccc(NC(=O)Nc3ccc(Cl)c(C(F)(F)F)c3)cc2)ccn1 [sorafenib] + CS(=O)(=O)CCNCc1ccc(-c2ccc3ncnc(Nc4ccc(OCc5cccc(F)c5)c(Cl)c4)c3c2)o1 [lapatinib] (first compound 0.4 µM, partner dose 0.8 µM) | 164%
CN1CCN(c2ccc3nc(-c4c(N)c5c(F)cccc5[nH]c4=O)[nH]c3c2)CC1 [Dovitinib] + CS(=O)(=O)CCNCc1ccc(-c2ccc3ncnc(Nc4ccc(OCc5cccc(F)c5)c(Cl)c4)c3c2)o1 [lapatinib] (first compound 0.1 µM, partner dose 0.8 µM) | 74.3%
CNC(=O)c1cc(Oc2ccc(NC(=O)Nc3ccc(Cl)c(C(F)(F)F)c3)cc2)ccn1 [sorafenib] + Nc1nc(F)nc2c1ncn2[C@@H]1O[C@H](CO)[C@@H](O)[C@@H]1O [fludarabine] (first compound 0.4 µM, partner dose 0.2 µM) | 129%
CNC(=O)c1cc(Oc2ccc(NC(=O)Nc3ccc(Cl)c(C(F)(F)F)c3)cc2)ccn1 [sorafenib] + COc1ccc(Cl)c(Nc2nc3ccccc3nc2NS(=O)(=O)c2cccc(NC(=O)C(C)(C)N)c2)c1 [XL147] (first compound 0.4 µM, partner dose 0.8 µM) | 93.2%
CS(=O)(=O)CCNCc1ccc(-c2ccc3ncnc(Nc4ccc(OCc5cccc(F)c5)c(Cl)c4)c3c2)o1 [lapatinib] + C=C(c1ccc(C(=O)O)cc1)c1cc2c(cc1C)C(C)(C)CCC2(C)C [Bexarotene] (first compound 0.8 µM, partner dose 2 µM) | 142%
C[C@@H](Oc1cc(-c2cnn(C3CCNCC3)c2)cnc1N)c1c(Cl)ccc(F)c1Cl [Crizotinib] + C#Cc1cccc(Nc2ncnc3cc(OCCOC)c(OCCOC)cc23)c1 [erlotinib] (first compound 0.2 µM, partner dose 0.8 µM) | 114%
CNC(=O)c1cc(Oc2ccc(NC(=O)Nc3ccc(Cl)c(C(F)(F)F)c3)cc2)ccn1 [sorafenib] + Cn1c(Nc2ccc(C(F)(F)F)cc2)nc2cc(Oc3ccnc(-c4ncc(C(F)(F)F)[nH]4)c3)ccc21 [CHIR265] (first compound 0.4 µM, partner dose 0.08 µM) | 90.2%
C=CCNC1=C2C[C@@H](C)C[C@H](OC)[C@H](O)[C@@H](C)/C=C(\C)[C@H](OC(N)=O)[C@@H](OC)/C=C\C=C(/C)C(=O)NC(=CC1=O)C2=O [Tanespimycin] + CC(=O)c1c(C)c2cnc(Nc3ccc(N4CCNCC4)cn3)nc2n(C2CCCC2)c1=O [palbociclib] (first compound 0.002 µM, partner dose 0.04 µM) | 102%
CN1CCN(c2ccc3nc(-c4c(N)c5c(F)cccc5[nH]c4=O)[nH]c3c2)CC1 [Dovitinib] + Cc1nc(Nc2ncc(C(=O)Nc3c(C)cccc3Cl)s2)cc(N2CCN(CCO)CC2)n1 [dasatanib] (first compound 0.1 µM, partner dose 0.004 µM) | 72.4%
